Assay results taken from patent publication US5206254A, “β-carbonyl-carboxyamides of 1,3-thiazolidines” (Boehringer Mannheim Italia S.p.A., priority 1988, dated 1993).

System: cough strokes induced by exposure to citric acid aerosol
Test: Protection against cough strokes induced by 7.5% citric acid aerosol (Charlier et al.)
Settings: for Percent reduction cough strokes: 30 mg/Kg os, exposure one hour after drug; for long lasting percent reduction (of cough strokes): subcutaneous, 60 mg/Kg

Compound: COc1ccccc1OCC1SCCN1C(=O)CC(=O)NCc1cccnc1 (stereo not shown) [Compound 14]
- ED50 (Cavia porcellus, po): 14 mg/kg

Compound: (R,S)-2-(2-methoxy-phenoxymethyl)-3-ethoxycarbonylacetyl-1,3-thiazolidine [Compound 7]
- Percent reduction cough strokes: 51%
- long lasting percent reduction (of cough strokes): 90%

Compound: COc1ccccc1OCC1SCCN1C(=O)CC(=O)O (racemic) [Compound 10, (R,S)-2-(2-methoxy-phenoxymethyl)-3-carboxyacetyl-1,3-thiazolidine]
- long lasting percent reduction (of cough strokes): 83%

Compound: COc1ccc2c3c1O[C@H]1[C@@H](O)C=C[C@H]4[C@@H](C2)N(C)CC[C@@]341 [Codeine phosphate, reference compound]
- ED50 (Cavia porcellus, po): 30 mg/kg

Compound: (R,S)-2-(2-methoxy-phenoxymethyl)-3-(3-oxo-butanoyl)-1,3-thiazolidine [Compound 6]
- Percent reduction cough strokes: 45%
- ED50 (os, citric acid aerosol (Table I)): 30 mg/kg
